# About 12,000 (3.5%) of roughly 340,000 compounds were called active. This list was built around the results that the source calls inconclusive (neither active nor inactive); the mix of calls is not that of the screen. Calls come from the whole dose curve; as a rule, active = well fitted inhibition curve with a large enough effect; inconclusive = small, poorly fitted or top-dose-only effect, or another doubt; inactive = no such curve, though single readings can be large or run the other way. No potency is given beside an inconclusive call; the fits are too rough.
# Test: qHTS Assay for Inhibitors of Hepatitis C Virus (HCV)
# Settings: Huh7.5.1 HCVcc-Cre (HCVcc is cell-culture hepatitis C virus) infection, luciferase reporter, 44 h; series mostly up to 41.8 µM
# In short: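 Reporter virus HCVcc-Cre (~0.5 moi) infects cells exposed to compound; seeding density 1,000 cells/well with 4 h settling beforehand. Luminescence, 15 sec read, taken 44 h post-infection following a 15 min RT substrate incubation.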
# Potency is the fitted concentration of half-maximal effect; tags give direction and shape of the fitted curve.
row,Structure (SMILES),Potency
1,COc1ccc2nc(Cl)c(C3CC(c4ccco4)=NN3C(=O)CCCC(=O)O)cc2c1 (stereo unspecified),inactive
2,COc1cc(CN(C)c2ccc(S(=O)(=O)N3CCCC3)cn2)ccc1OC(F)F,"inconclusive [inhibitor, partial curve]"
3,Clc1cccc(N2CCN(CCCN3CCN(c4ccccc4)CC3)CC2)c1,active: 11.2 µM
4,O=C1CCN(CCCc2ccccc2)CCN1[C@H](CO)Cc1ccccc1,inactive
5,COc1ccccc1/C=C/C(=O)N1CCN(S(=O)(=O)c2cc(C)ccc2C)CC1,"inconclusive [inhibitor, partial curve]"
6,Nc1c(N(CCC2=CCCCC2)C(=O)COc2ccc(F)cc2)c(=O)[nH]c(=O)n1Cc1ccccc1,active: 12.6 µM
7,c1cncc(-c2nc3ccccc3s2)c1,"inconclusive [inhibitor, single point]"
8,Cc1ccnc(NC(=O)c2cccc(NC(=O)c3ccc(Cl)c(Cl)c3)c2)c1,"inconclusive [inhibitor, partial curve]"
9,O=C(NCCc1ccc(Cl)cc1)c1cc(-c2ccncc2)nc2ccccc12,"inconclusive [inhibitor, single point]"
10,COc1ccc(OC)c2sc(NC(=O)CCSc3ccccc3)nc12,active: 10 µM
11,CCCC1=Nc2cc(C(=O)NCCCN3CCN(C)CC3)ccc2Sc2ccccc21,"inconclusive [inhibitor, partial curve]"
12,c1ccc2nc(N3CCCC3)c(N3CCCCC3)nc2c1,inactive
13,CCOc1ccc(OCC)c(NC(=O)CN(C)S(=O)(=O)c2cnc[nH]2)c1,"inconclusive [inhibitor, full curve, poor fit]"
14,CCN(C(=O)CSc1nnc(Cn2nnc3ccccc32)o1)c1nc(C)cs1,inactive
15,CC1CCC(NC(=O)CCCn2sc3ccccc3c2=O)CC1 (stereo unspecified),inactive
16,Nc1ccc(C(=O)N/N=C/c2cn(Cc3cccc(F)c3)c3ccccc23)cc1,"inconclusive [inhibitor, full curve]"
17,CCOC(=O)c1cc2c(=O)n3ccccc3nc2n(C(C)C)c1=NC(=O)c1c(-c2ccccc2Cl)noc1C,"inconclusive [inhibitor, single point]"
18,Cc1ccsc1/C=N/NC(=O)CO,inactive
19,Cc1ccc2[nH]c3c(c2c1)CN(C(=O)CN1CCN(c2cccc(C)c2C)CC1)CC3,active: 6.31 µM
20,Cc1cc(C(=O)CCl)c(C)n1-c1cccc(S(=O)(=O)N2CCOCC2)c1,"inconclusive [inhibitor, single point]"
21,CCN(CC)S(=O)(=O)c1ccc(N(C)Cc2cccc(OC)c2OC)nc1,active: 3.98 µM
22,CCCCC(=O)Oc1c(S(=O)(=O)c2ccc(C)cc2)c(C)nn1C(C)(C)C,"inconclusive [inhibitor, single point]"
23,N#Cc1ccc(NC2c3ccccc3CC2O)cc1 (stereo unspecified),"inconclusive [inhibitor, partial curve, poor fit]"
24,CSc1ccc(CNc2ncc(-c3cccc([N+](=O)[O-])c3)n2C)cc1,"inconclusive [inhibitor, single point]"

row,Structure (SMILES),Potency
1,COC(=O)C[C@H](NC(=O)Cn1cnc(C(=O)Nc2ccc(C)c(C)c2)n1)C(=O)OC,inactive
2,Cc1ccc(-n2c(O)c(/C=C3/C(c4ccccc4)=Nc4ccccc43)c(=O)[nH]c2=O)cc1,"inconclusive [inhibitor, single point]"
3,CN(CC(=O)Nc1ccccc1Cl)C(=O)c1cccc(S(=O)(=O)N2CCN(c3ccc(F)cc3)CC2)c1,active: 5.62 µM
4,CCCCNc1c(-c2ccc(-c3ccc(OC)cc3)c(OC)c2)nc2ccccn12,"inconclusive [inhibitor, partial curve]"
5,COc1cc(C(=O)O/N=C(\N)c2ccncc2)cc(OC)c1OC,inactive
6,COc1ccccc1-c1nnc(SC2CCc3ccccc3NC2=O)s1 (stereo unspecified),"inconclusive [inhibitor, single point]"
7,CCc1ccc(NC(=O)C(C)OC(=O)Cc2cc(OC)c(OC)c(OC)c2)cc1 (stereo unspecified),"inconclusive [inhibitor, single point]"
8,NC(=O)C1CCCN(CC(O)COCc2ccc(Cl)cc2)C1 (stereo unspecified),inactive
9,CCNS(=O)(=O)c1ccc(CCC(=O)N2CCC(C)CC2)cc1,"inconclusive [inhibitor, single point]"
10,S=C(c1ccc(-c2ccccc2Cl)o1)N1CCCCC1,"inconclusive [inhibitor, partial curve]"
11,Cc1nc2ccc(NC(=O)c3ccc(S(=O)(=O)N4CCOCC4)cc3)cc2s1,"inconclusive [inhibitor, single point]"
12,O=C(Nc1cccc2ccccc12)C1CCN(C(=O)Cc2ccccc2)CC1,"inconclusive [inhibitor, single point]"
13,Cc1c(NC(=O)c2ccc(Cl)c([N+](=O)[O-])c2)cccc1-n1cnnn1,active: 11.2 µM
14,Cc1ccc(S(=O)(=O)Nc2ccc(S(=O)(=O)Nc3cc(C)nc(C)n3)cc2)cc1,inactive
15,Cc1cc(Nc2ccccc2)n(-c2cccc(Cl)c2)n1,"inconclusive [inhibitor, single point]"
16,O=[N+]([O-])c1ncn(Cc2c(Cl)cccc2Cl)n1,"inconclusive [inhibitor, single point]"
17,COC(=O)c1cccnc1N1CCN(c2ccccc2F)CC1,inactive
18,Cc1c(C=O)c(C=O)c(C)n1Cc1ccccc1,"inconclusive [inhibitor, single point]"
19,COc1ccccc1NC(=O)NCc1ccco1,"inconclusive [inhibitor, single point]"
20,O=C(c1ccccc1)c1ccc(C(=O)N2CCN(c3ccccc3)CC2)cc1,inactive
21,c1ccc(C2=Nc3c(ccc4ccccc34)C(c3ccncc3)=NN2)cc1,"inconclusive [inhibitor, single point]"
22,O=C(Nc1nc(-c2ccc(S(=O)(=O)N3CCCC3)cc2)cs1)c1ccco1,"inconclusive [inhibitor, single point]"
23,CCOC(=O)N1CCN(S(=O)(=O)N2CCCC(C(=O)NCCc3ccc(OCC)c(OCC)c3)C2)CC1 (stereo unspecified),"inconclusive [inhibitor, partial curve]"
24,O=C(Nc1ccc(N2CCOCC2)c(Cl)c1)c1cc2ccccc2o1,"inconclusive [inhibitor, full curve]"

row,Structure (SMILES),Potency
1,COC(=O)c1cc(S(=O)(=O)NCc2ccccc2Cl)c[nH]1,inactive
2,COc1ccc(S[C@@H](CCN2CC[C@H](NC(=O)OCc3ccccc3)CCC2=O)c2ccccc2)cc1,"inconclusive [inhibitor, partial curve]"
3,COc1ccc(C2CC(c3ccc4ccccc4c3)=NN2C(=O)COC(=O)C2CCC(=O)N2)cc1 (stereo unspecified),inactive
4,CCOc1cccc2sc(=NC(=O)CCS(=O)(=O)c3ccccc3)n(CC)c12,active: 11.2 µM
5,CCOC(=O)Cc1c[nH]c2ccc([N+](=O)[O-])cc12,inactive
6,COc1ccccc1NC(=O)CSC1=NCCN1,"inconclusive [inhibitor, single point]"
7,c1ccc(N2CCN(c3ncnc4sc5c(c34)CCC5)CC2)cc1,active: 10 µM
8,CC1CCC2(CC1)NC(=O)N(NC(=O)CCl)C2=O (stereo unspecified),inactive
9,O=C(CCOc1cccc(Br)c1)Nc1ccc(F)c(S(=O)(=O)N2CCOCC2)c1,"inconclusive [inhibitor, partial curve]"
10,CC(C)CCC(CCN1CCOCC1)c1ccc2c(c1)OCO2 (stereo unspecified),"inconclusive [inhibitor, single point]"
11,O=C(N/N=C/c1cc(Br)c(Br)o1)C(O)c1ccccc1 (stereo unspecified),inactive
12,Clc1ccc(OCc2nc(-c3ccncc3)no2)c(Cl)c1,"inconclusive [inhibitor, single point]"
13,C=C1C(O)[C@@H]2O[C@]3(CC[C@H](/C=C/C(C)[C@@H]4CC(C)=CC5(O[C@H](C[C@@](C)(O)CO)CCC5O)O4)O3)CC[C@H]2O[C@@H]1C(O)CC(C)[C@H]1OC2(CCCCO2)CCC1C (stereo partly specified),active: 1.41 µM
14,CC(=O)/C(=N/Nc1ccc(Br)cc1)N1CCCc2ccccc21,"inconclusive [inhibitor, partial curve]"
15,COc1ccc(C)cc1NC(=O)CN(C)S(=O)(=O)c1cnc[nH]1,inactive
16,Cc1nn(Cc2cccc(C(=O)NC34CC5CC(CC(C5)C3)C4)c2)c(C)c1Br,active: 14.1 µM
17,Cc1ccc(-c2cn3c(n2)CCCC3)cc1,"inconclusive [inhibitor, partial curve]"
18,NC1=Nc2cccc3cccc1c23,"inconclusive [inhibitor, single point]"
19,O=[N+]([O-])c1ccc(N=Cc2ccc(Br)c([N+](=O)[O-])c2)cc1,"inconclusive [inhibitor, single point]"
20,O=C(COC(=O)Cn1cnc2ccccc21)Nc1cccc2c1C(=O)c1ccccc1C2=O,"inconclusive [inhibitor, partial curve, poor fit]"
21,CN(C)c1oc(-c2ccc(OCc3ccccc3)cc2)nc1C#N,"inconclusive [inhibitor, single point]"
22,O=[N+]([O-])c1ccc(Nc2nc(NC3CCCCC3)nc(N3CCCC3)n2)cc1,"inconclusive [inhibitor, partial curve]"
23,COc1ccc(CCN=C(N)C(C)c2ccccc2)cc1OC (stereo unspecified),inactive
